The experiment deals with CT26.WT cells. Briefly: Tumor rechallenge test with CT26.WT cells in BALB/c mouse with complete tumor regression. The experiment is classed as in vivo. As to the method:
Substantially the same anti-tumor test as in (Test Example 3) Anti-Tumor Test (1) was conducted.
Substantially the same anti-tumor test as in (Test Example 5) Anti-Tumor Test (3) was conducted.

The values that follow come from patent publication US20260256934A1, “ANTIBODY-DRUG CONJUGATE INCLUDING MUTANT Fc REGION” (DAIICHI SANKYO COMPANY, LIMITED, priority 2022, published 2026).

B1: anti-EGFR antibody 1-CDN conjugate 1 (conjugate)
heavy: QVQLQESGPGLVKPSETLSLTCTVSGGSVSSGDYYWTWIRQSPGKGLEWIGHIYYSGNTNYNPSLKSRLTISIDTSKTQFSLKLSSVTAADTAIYYCVRDRVTGAFDIWGQGTMVTVSSASTKGPSVFPLAPSSKSTSGGTAALGCLVKDYFPEPVTVSWNSGALTSGVHTFPAVLQSSGLYSLSSVVTVPSSSLGTQTYICNVNHKPSNTKVDKRVEPKSCDKTHTCPPCPAPEAAGGPSVFLFPPKPKDTLMISRTPEVTCVVVGVSHEDPEVKFNWYVDGVEVHNAKTKPREEQYNSTYRVVSVLTVLHQDWLNGKEYKCKVSNKALPAPIEKTISKAKGQPREPQVYTLPPSREEMTKNQVSLTCLVKGFYPSDIAVEWESNGQPENNYKTTPPVLDSDGSFFLYSKLTVDKSRWQQGNVFSCSVMHEALHNHYTQKSLSLSPGK
light: DIQMTQSPSSLSASVGDRVTITCQASQDISNYLNWYQQKPGKAPKLLIYDASNLETGVPSRFSGSGSGTDFTFTISSLQPEDIATYFCQHFDHLPLAFGGGTKVEIKRTVAAPSVFIFPPSDEQLKSGTASVVCLLNNFYPREAKVQWKVDNALQSGNSQESVTEQDSKDSTYSLSSTLTLSKADYEKHKVYACEVTHQGLSSPVTKSFNRGEC
Turning to B1, the “tumor growth after rechallenge (tumor volume)” value (1.0 mg/kg once on Day 7, CT26.WT rechallenge left axillary region Day 80, results of Day 99, versus age-matched untreated control) is recorded as “markedly inhibited”.

B2: anti-EGFR antibody 1-CDN conjugate 2 (conjugate)
heavy: QVQLQESGPGLVKPSETLSLTCTVSGGSVSSGDYYWTWIRQSPGKGLEWIGHIYYSGNTNYNPSLKSRLTISIDTSKTQFSLKLSSVTAADTAIYYCVRDRVTGAFDIWGQGTMVTVSSASTKGPSVFPLAPSSKSTSGGTAALGCLVKDYFPEPVTVSWNSGALTSGVHTFPAVLQSSGLYSLSSVVTVPSSSLGTQTYICNVNHKPSNTKVDKRVEPKSCDKTHTCPPCPAPEAAGGPSVFLFPPKPKDTLMISRTPEVTCVVVGVSHEDPEVKFNWYVDGVEVHNAKTKPREEQYNSTYRVVSVLTVLHQDWLNGKEYKCKVSNKALPAPIEKTISKAKGQPREPQVYTLPPSREEMTKNQVSLTCLVKGFYPSDIAVEWESNGQPENNYKTTPPVLDSDGSFFLYSKLTVDKSRWQQGNVFSCSVMHEALHNHYTQKSLSLSPGK
light: DIQMTQSPSSLSASVGDRVTITCQASQDISNYLNWYQQKPGKAPKLLIYDASNLETGVPSRFSGSGSGTDFTFTISSLQPEDIATYFCQHFDHLPLAFGGGTKVEIKRTVAAPSVFIFPPSDEQLKSGTASVVCLLNNFYPREAKVQWKVDNALQSGNSQESVTEQDSKDSTYSLSSTLTLSKADYEKHKVYACEVTHQGLSSPVTKSFNRGEC
Regarding B2, the “tumor growth after rechallenge (tumor volume)” value (1.0 mg/kg or 2.0 mg/kg once on Day 7, CT26.WT rechallenge Day 80, results of Day 100, versus age-matched control) was “markedly inhibited”.
